Experimental data: patent publication US20240207311A1, “TUMOR INFILTRATING LYMPHOCYTES THERAPY” (Alethia Biotherapeutics Inc., priority 2021, published 2024)

What was measured:
[1] = test system: thyroid cancer metastasic to the lungs; assay: Tumor biopsies of patients treated with AB-16B5 as single agent, thyroid cancer; type: in vivo, human; settings: biopsy after the second cycle, H&E, FIG. 2B
Experimental: (§1) In parallel human tumor biopsies of patients treated with AB-16B5 (humanized 16B5) as single agent were analyzed (FIGS. 2B-2E). Needle biopsies obtained from a patient with metastatic thyroid cancer and form a patient with inoperable metastatic gastric cancer were sectioned and stained with hematoxylin and eosin. An on-treatment biopsy from a patient with thyroid cancer metastasic to the lungs was obtained after the second cycle treatment with AB-16B5. […] Hemosiderin-laden macrophages were observed inside necrotic areas some reflecting red blood cell extravasation associated with necrosis (not shown).

[2] = test system: inoperable metastatic gastric cancer; assay: Tumor biopsies of patients treated with AB-16B5 as single agent, gastric cancer; type: in vivo, human; settings: biopsy after the second cycle, H&E, FIG. 2E
Experimental: as §1

B1: humanized 16B5: humanized anti-clusterin antibody (light chain SEQ ID NO:11, heavy chain SEQ ID NO:12), used in patients (antibody)
heavy: QVQLVQSGAEVKKPGATVKISCKVSGFNIKDIYMHWVQQAPGKGLEWMGRIDPAYGNTKYDPKFQGRVTITADTSTDTAYMELSSLRSEDTAVYYCARRYDTAMDYWGQGTLVTVSSASTKGPSVFPLAPCSRSTSESTAALGCLVKDYFPEPVTVSWNSGALTSGVHTFPAVLQSSGLYSLSSVVTVPSSNFGTQTYTCNVDHKPSNTKVDKTVERKCCVECPPCPAPPVAGPSVFLFPPKPKDTLMISRTPEVTCVVVDVSHEDPEVQFNWYVDGVEVHNAKTKPREEQFNSTFRVVSVLTVVHQDWLNGKEYKCKVSNKGLPAPIEKTISKTKGQPREPQVYTLPPSREEMTKNQVSLTCLVKGFYPSDIAVEWESNGQPENNYKTTPPMLDSDGSFFLYSKLTVDKSRWQQGNVFSCSVMHEALHNHYTQKSLSLSPGK
light: DIVMTQSPDSLAVSLGERATINCKSSQSLLNSRTRKNYLAWYQQKPGQPPKLLIYWASTRESGVPDRFSGSGSGTDFTLTISSLQAEDVAVYYCKQSYNLWTFGQGTKLEIKVAAPSVFIFPPSDEQLKSGTASVVCLLNNFYPREAKVQWKVDNALQSGNSQESVTEQDSKDSTYSLSSTLTLSKADYEKHKVYACEVTHQGLSSPVTKSFNRGEC
modifications: Humanized 16B5 heavy chain; Humanized 16B5 light chain
[1]
  tumor necrosis in on-treatment biopsy: essentially all tumor fragments were necrotic
[1]; 2C
  immune infiltrate in on-treatment biopsy: lymphoplasmacytic infiltrate was observed along the edge of the fragment; also recorded: perivascular infiltrate composed of plasma cells along the edge of tumor fragment
[2]
  immune infiltrate in on-treatment biopsy: infiltrated by a mix neutrophilic and mononucleated immune cells infiltrate

“Also recorded” adds a separate entry of the source.
